In paper PMC11995724, “Antibiotic target discovery by integrated phenotypic and activity-based profiling of electrophilic fragments” (Cell chemical biology, 2025):
About 75 (2%) of roughly 3,200 compounds showed an effect of 50% or more. This is one part of the list.

tested on: T1, S. aureus MSSA476; parameters: species or system S. aureus MSSA476 (TSB) or V. cholerae SAD30 (LB); 384-well bacterial growth screen at 25 uM, OD600 relative to DMSO control; details: relative growth, OD600, TSB; 25 µM; inhibitor
T1 construct: MSSA476

SMILES	% of control remaining
C=CC(=O)Nc1ccc(O)c(C(=O)O)c1 [1-G06, 2-hydroxy-5-(prop-2-enamido)benzoic acid]	91.4286%
CCc1ccc(CNC(=O)CCl)s1 [6-K05, 2-chloro-N-[(5-ethylthiophen-2-yl)methyl]acetamide]	81.2683%
COc1ccc(NC(=O)CCl)cc1S(=O)(=O)N1CCOCC1 [4-D15, 2-chloro-N-[4-methoxy-3-(morpholine-4-sulfonyl)phenyl]acetamide]	121.582%
O=C(CCl)Nc1nc(-c2ccccc2)cs1 [4-L04, 2-chloro-N-(4-phenyl-1,3-thiazol-2-yl)acetamide]	143.306%
C=CC(=O)NCCNC(=O)[C@@]12CC[C@@](C)(C(=O)O1)C2(C)C [2-J18, N-(2-{[(1S,4R)-4,7,7-trimethyl-3-oxo-2-oxabicyclo[2.2.1]heptan-1-yl]formamido}ethyl)prop-2-enamide]	119.408%
Cc1ccc(C=C(C#N)C(=O)Nc2ccccc2C(=O)O)s1 [9-K08, 2-[2-cyano-3-(5-methylthiophen-2-yl)prop-2-enamido]benzoic acid]	38.0524%
N#CC(=Cc1c(F)cccc1F)C(=O)Nc1ccccc1F [9-J12, 2-cyano-3-(2,6-difluorophenyl)-N-(2-fluorophenyl)prop-2-enamide]	108.764%
O=C(c1cc(=O)[nH]c2ccc([N+](=O)[O-])cc12)N1CCSSCC1 [10-B11, 4-(1,2,5-dithiazepane-5-carbonyl)-6-nitro-1,2-dihydroquinolin-2-one]	85.9375%
N#CC(=Cc1ccc2ccccc2c1)C(=O)NC(N)=O [9-K10, {2-cyano-2-[(naphthalen-2-yl)methylidene]acetyl}urea]	99.176%
C=CC(=O)N1CC(C)(C)c2cc(Cl)ccc21 [1-L14, 1-(5-chloro-3,3-dimethyl-2,3-dihydro-1H-indol-1-yl)prop-2-en-1-one]	121.67%
CC(=O)Nc1ccc(C(=O)C(C)Cl)cc1 (stereo not drawn) [10-K06, N-[4-(2-chloropropanoyl)phenyl]acetamide]	112.188%
C=CC(=O)N1CCN(S(=O)(=O)Cc2ccon2)CC1 [1-J07, 1-{4-[(1,2-oxazol-3-yl)methanesulfonyl]piperazin-1-yl}prop-2-en-1-one]	129.758%
C=CC(=O)N1CCCC2(CCCOC2)C1 (stereo not drawn) [3-E11, 1-{2-oxa-8-azaspiro[5.5]undecan-8-yl}prop-2-en-1-one]	83.9356%
Cc1nnsc1CNC(=O)C(C)Cl (stereo not drawn) [7-M07, 2-chloro-N-[(4-methyl-1,2,3-thiadiazol-5-yl)methyl]propanamide]	104.867%
Cc1ccc(C=C(C#N)C(=O)NC(C)C)s1 [9-O11, 2-cyano-3-(5-methylthiophen-2-yl)-N-(propan-2-yl)prop-2-enamide]	102.472%
CC(Cl)C(=O)Nc1cccc(Cl)c1Cl (stereo not drawn) [4-L13, 2-chloro-N-(2,3-dichlorophenyl)propanamide]	108.623%
CC(Cl)C(=O)Nc1nc2ccccc2s1 (stereo not drawn) [5-K05, N-(1,3-benzothiazol-2-yl)-2-chloropropanamide]	80.51%
CC(Cl)C(=O)NCC1COc2ccccc2O1 (stereo not drawn) [4-F13, 2-chloro-N-[(2,3-dihydro-1,4-benzodioxin-2-yl)methyl]propanamide]	104.05%
C=CC(=O)NC(C)c1nnnn1C1CC1 (stereo not drawn) [1-M09, N-[1-(1-cyclopropyl-1H-1,2,3,4-tetrazol-5-yl)ethyl]prop-2-enamide]	120.264%
COc1ccc(C=C(C#N)C(=O)Nc2ccc(C)c(C)c2)cc1 [8-I05, 2-cyano-N-(3,4-dimethylphenyl)-3-(4-methoxyphenyl)prop-2-enamide]	97.9253%
CC(Cl)C(=O)N1CCCC1c1nccc(C(F)(F)F)n1 (stereo not drawn) [7-B11, 2-chloro-1-{2-[4-(trifluoromethyl)pyrimidin-2-yl]pyrrolidin-1-yl}propan-1-one]	93.2496%
CC(Cl)C(=O)N1CCN(c2oc(-c3ccco3)nc2C#N)CC1 (stereo not drawn) [7-D13, 5-[4-(2-chloropropanoyl)piperazin-1-yl]-2-(furan-2-yl)-1,3-oxazole-4-carbonitrile]	78.179%
C=CC(=O)NCc1ccc2oc(=O)[nH]c2c1 [3-D14, N-[(2-oxo-2,3-dihydro-1,3-benzoxazol-5-yl)methyl]prop-2-enamide]	117.37%

SMILES	% of control remaining
O=C(CCl)N1N=C(c2ccc(Cl)cc2)CC1c1ccco1 (stereo not drawn) [5-L04, 2-chloro-1-[3-(4-chlorophenyl)-5-(furan-2-yl)-4,5-dihydro-1H-pyrazol-1-yl]ethan-1-one]	80.8743%
Cc1ccnc(-c2n[nH]c(C(C)NC(=O)C(C)Cl)n2)c1 (stereo not drawn) [7-I10, 2-chloro-N-{1-[3-(4-methylpyridin-2-yl)-1H-1,2,4-triazol-5-yl]ethyl}propanamide]	91.9937%
O=C(Nc1cccc(-c2nnco2)c1)N1CCSSCC1 [10-P09, N-[3-(1,3,4-oxadiazol-2-yl)phenyl]-1,2,5-dithiazepane-5-carboxamide]	103.75%
C=CC(=O)NCCC(=O)N1CCCN(c2cccnn2)CC1 [2-P16, N-{3-oxo-3-[4-(pyridazin-3-yl)-1,4-diazepan-1-yl]propyl}prop-2-enamide]	109.661%
C=CC(=O)N(Cc1cnc(C2CC2)o1)C1CCCCC1C (stereo not drawn) [1-D15, N-[(2-cyclopropyl-1,3-oxazol-5-yl)methyl]-N-(2-methylcyclohexyl)prop-2-enamide]	100.571%
C=CC(=O)Nc1cnn2cc(C)cnc12 [1-G19, N-{6-methylpyrazolo[1,5-a]pyrimidin-3-yl}prop-2-enamide]	111.824%
CC(NC(=O)C(C#N)=Cc1ccccc1F)c1ccccc1 (stereo not drawn) [8-P16, 2-cyano-3-(2-fluorophenyl)-N-(1-phenylethyl)prop-2-enamide]	79.0041%
C=CCN(Cc1ccc(Cl)s1)C(=O)CCl [5-M05, 2-chloro-N-[(5-chlorothiophen-2-yl)methyl]-N-(prop-2-en-1-yl)acetamide]	83.7887%
CN1C(=O)[C@H](NC(=O)CCl)COc2ccccc21 [7-D04, 2-chloro-N-[(3R)-5-methyl-4-oxo-2,3,4,5-tetrahydro-1,5-benzoxazepin-3-yl]acetamide]	81.3187%
C=CC(=O)N(Cc1ccc2cnn(C)c2c1)CC(C)(C)C [2-O05, N-(2,2-dimethylpropyl)-N-[(1-methyl-1H-indazol-6-yl)methyl]prop-2-enamide]	92.9504%
O=C(CCl)N(Cc1ccnn1C1CCC1)C1CC=CCC1 (stereo not drawn) [5-I14, 2-chloro-N-[(1-cyclobutyl-1H-pyrazol-5-yl)methyl]-N-(cyclohex-3-en-1-yl)acetamide]	87.796%
Cc1c(C#N)c(NC(=O)CCl)n(Cc2ccccc2)c1C [4-M21, N-(1-benzyl-3-cyano-4,5-dimethyl-1H-pyrrol-2-yl)-2-chloroacetamide]	121.582%
Cc1ccc(Sc2ccc(NC(=O)CCl)cc2)cc1C [4-G03, 2-chloro-N-{4-[(3,4-dimethylphenyl)sulfanyl]phenyl}acetamide]	104.431%
COc1ccc(C=C(C#N)C(=O)Nc2cccc3ccccc23)cc1 [9-E10, 2-cyano-3-(4-methoxyphenyl)-N-(naphthalen-1-yl)prop-2-enamide]	100.375%
Cc1ccc(C)n1C1CCC(NC(=O)CCl)CC1 (stereo not drawn) [7-F18, 2-chloro-N-[4-(2,5-dimethyl-1H-pyrrol-1-yl)cyclohexyl]acetamide]	113.03%
C=CC(=O)NCCC(=O)N1CCCC1c1cn(C)nc1C (stereo not drawn) [3-E10, N-{3-[2-(1,3-dimethyl-1H-pyrazol-4-yl)pyrrolidin-1-yl]-3-oxopropyl}prop-2-enamide]	105.181%
Cc1ccc(N(C(=O)CCl)C2C=CS(=O)(=O)C2)cc1 (stereo not drawn) [5-K13, 2-chloro-N-(1,1-dioxo-2,3-dihydro-1lambda6-thiophen-3-yl)-N-(4-methylphenyl)acetamide]	104.189%
C=CC(=O)N(Cc1ccc(Cl)o1)C1CCCC12CCOCC2 (stereo not drawn) [2-K05, N-[(5-chlorofuran-2-yl)methyl]-N-{8-oxaspiro[4.5]decan-1-yl}prop-2-enamide]	104.091%
CN(C(=O)CCl)C1CCCCC1 [5-N07, 2-chloro-N-cyclohexyl-N-methylacetamide]	95.082%
C=CC(=O)Nc1nn(CC(C)C)cc1Cl [2-G05, N-[4-chloro-1-(2-methylpropyl)-1H-pyrazol-3-yl]prop-2-enamide]	97.8242%
COc1cc(C=C(C#N)C(=O)NC(C)C)cc(Cl)c1O [9-K11, 3-(3-chloro-4-hydroxy-5-methoxyphenyl)-2-cyano-N-(propan-2-yl)prop-2-enamide]	103.371%
C=CC(=O)NC1(c2cccc(F)c2)CCOCC1 [1-M04, N-[4-(3-fluorophenyl)oxan-4-yl]prop-2-enamide]	92.8352%
